From the supplement of paper PMC10338343 come the findings set out here.

± gives the standard deviation. The list shows a part of the results, in another mix than the full data.

The test system of one assay is MIWI (PIWIL1) piRISC loaded with L1MC piRNA (30 nt). In words: pre-steady-state target cleavage rate (min^-1); MIWI and MILI are mouse PIWI proteins and EfPiwi is from a freshwater sponge; tags in brackets are library labels; higher = faster piRNA-guided slicing of the target. The note with it: guide: L1MC piRNA 5'p-UAACUAAAUACUAUGCAAGCUGUAGGUCCU; auxiliary factor: 500 nM mouse GTSF1. A digest of the protocol: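 Cleave-'n-Seq: 1 nM active affinity-purified piRISC with one synthetic guide and 0.1 nM transcribed, DNA-blocked target RNA library were mixed, with or without 500 nM GTSF1 partner protein, in HEPES–potassium acetate buffer at 33 °C for 0–8 or 0–960 min. Uncleaved targets were sequenced and normalised to depth and to weakly complementary targets, three trials were pooled, and k3 was capped at 0.0001 min^-1. The pre-steady-state cleavage rate was fitted […].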
Regarding AGGACCUACAGCUUGCAUACUAUUUUCAAA, the “pre-steady-state target cleavage rate” value stood at 0.217 ± 0.044. Still for that read-out and setting: then UCCUGGUACACGUUGCAUAGUAUUUUCAAA, with 0.0245 ± 0.013; and AGGACCUACAGGUUGCAUAGUAUUUUCAAA, with 0.396 ± 0.061; and UCCACCUACAGGAUGCAUAGUAUUUAGAAA, with 0.37 ± 0.048. As for UCCUGGUACUGCUUGCAUAGUAUUUACAAA, the “pre-steady-state target cleavage rate” value came out at 0.0877 ± 0.021.

Turning to UCCUGGAACAGCUUGCAAUGUAUUUACAAA, the “pre-steady-state target cleavage rate” value stood at 0.0619 ± 0.019. Take UCCUGGAUGUCGUUGCAUGAGUAUUUAGUUA: the “pre-steady-state target cleavage rate” value is < 0.0001. As for UCCUGGAACAGCUACGAUAGUAUUUAGUUA, the “pre-steady-state target cleavage rate” value was found to be 0.0171 ± 0.0039. Consider UCCUGGAUGUCCUUGCAUAGUAAUUUGUUA, for which the “pre-steady-state target cleavage rate” value is 0.011 ± 0.005.

With UCCUGCUACAGCUUGCAUAGUAAAUUCAAA, the “pre-steady-state target cleavage rate” value is 0.0226 ± 0.0092.

In the case of UCCUGGAUGUCGAAGCAUAGUAUUUCGUUA, the “pre-steady-state target cleavage rate” value amounted to 0.00699 ± 0.0031. In the case of UCCUGCUACAGCUUGCAUAGUAUAAAGAAA, the “pre-steady-state target cleavage rate” value was 0.23 ± 0.044. With UGGACCUACAGCUUGCUAUGUAUUUAGAAA, the “pre-steady-state target cleavage rate” value amounted to 0.0086 ± 0.0042.

Regarding UCCACCUACAGCUUGCAUAGAAUUUACAAA, the “pre-steady-state target cleavage rate” value came out at 0.308 ± 0.054. Still for that read-out and setting: then UCCUGGAUGUCGUUGCAUAGUACUUAGUUA, with 0.00459 ± 0.0027; and UCCUGGAACAGCUUCGAUAGUAUUUAGAAA, with 0.0121 ± 0.0047. For the sequence UGCUGCUACAGCUUGCAUAGUAUUUACAAA, the “pre-steady-state target cleavage rate” value is 0.253 ± 0.041. Regarding UGGACCUACAGCUUGCAUAGUAAUUUCAAA, the “pre-steady-state target cleavage rate” value came to 0.129 ± 0.038.

With UCCUCCUACAGCUUGCAUUGUAUUUUCAAA, the “pre-steady-state target cleavage rate” value worked out at 0.131 ± 0.028. On to AGGACCUACAGCUUGCACUAGUAUUUAGUUA, for which the “pre-steady-state target cleavage rate” value was determined as 0.254 ± 0.088.

As for UCCACCUACAGCUUGCAUAGAAUUUUCAAA, the “pre-steady-state target cleavage rate” value was found to be 0.199 ± 0.039. In the case of UCGACCUAGUGCUUGCAUAGUAUUUUCAAA, the “pre-steady-state target cleavage rate” value was 0.139 ± 0.025. In the case of UCCUGCUACAGCUUGCAAUCUAUUUAGUAA, the “pre-steady-state target cleavage rate” value was 0.179 ± 0.04.

Consider UCCUGGAUGUCGAACGUUAGUAUUUACAUA, for which the “pre-steady-state target cleavage rate” value is < 0.0001. Still for that read-out and setting: then UCGACCUACAGCUAGCAUAGUAUUUUCAAA, with 0.41 ± 0.051.

Take UCCUGGAUGAGGUUGCAUAGUAUUUAGAUA: the “pre-steady-state target cleavage rate” value stood at 0.0173 ± 0.0062. As for UCCUGGAACUCGUUGCAUAGUAUUUACAAA, the “pre-steady-state target cleavage rate” value was 0.0127 ± 0.0048. Take UCCACCUACAGCUUGCAUAGUAUAAAGUAA: the “pre-steady-state target cleavage rate” value worked out at 0.278 ± 0.04.

As to UCCUGCUACAGCUUGCCAUAGUAUUUAGUUA, the “pre-steady-state target cleavage rate” value worked out at 0.12 ± 0.021.

UCCUGCUACAGCUACCAUAGUAUUUAGAAA: the “pre-steady-state target cleavage rate” value is 0.0944 ± 0.03.

On to UCCUGGAUCUCGUUGCAUAGUAUUUAGAAA, for which the “pre-steady-state target cleavage rate” value is 0.00784 ± 0.0049. As to UCGACCUACAGCUUGCAUAGAAUUUACAAA, the “pre-steady-state target cleavage rate” value was found to be 0.392 ± 0.057. UCGACCAUGAGCUUGCAUAGUAUUUUCAAA: the “pre-steady-state target cleavage rate” value is 0.0965 ± 0.017. On to UCCUGGAACAGCUUGCACUAGUAUUUAGUUA, for which the “pre-steady-state target cleavage rate” value was 0.0115 ± 0.0049. UCCACCUACACGAUGCAUAGUAUUUUCAAA: the “pre-steady-state target cleavage rate” value turned out to be 0.117 ± 0.018. On to AGGACCUACAGCUUGCAUUGUAUUUACAAA, for which the “pre-steady-state target cleavage rate” value stood at 0.128 ± 0.028.

Still in this assay, the particulars now being: guide: L1MC piRNA 5'p-UAACUAAAUACUAUGCAAGCUGUAGGUCCU; auxiliary factor: none (no GTSF1).
With UCGACCUACAGCUUGCAUGGUAUUUAGUUA, the “pre-steady-state target cleavage rate” value is 0.0512 ± 0.011. The same measure, in the same setting: then UCGACCUACAGCUUGCAUAUUAUUUAGUUA, with 0.0515 ± 0.013. Consider UCCUGGAUGUCGAACCAUGAGUAUUUAGUUA, for which the “pre-steady-state target cleavage rate” value is < 0.0001.

On to AGGACCUACAGCAUGCAUAGUAUUUAGUUA, for which the “pre-steady-state target cleavage rate” value came out at 0.073 ± 0.015.
